According to ChEMBL document CHEMBL4888484, “Replenishing the malaria drug discovery pipeline: Screening and hit evaluation of the MMV Hit Generation Library 1 (HGL1) against asexual blood stage Plasmodium falciparum ,using a nano luciferase reporter read-out” (2022):
The whole screen tested about 150,000 compounds, of which about 540 (0.36%) showed an effect of 50% or more. The list shows a part of the results.

tested on: Plasmodium falciparum; assay: Primary screen in NF54 nanoGlo assay, in single point, at 2uM, 72h; a lower Z score goes with more inhibition; format: functional, Erythrocyte; settings: timepoint 72 hour

SMILES | % Inhibition [%] | Z score
Cc1nc(-c2ccc3c(c2)CCN3C(=O)C2CCN(C(=O)c3ccc(F)cc3F)CC2)cs1 | -6 | 0.94
COC1CCN(C[C@H]2CCCCCN2C(=O)Nc2cccc(C)c2)CC1 | -6 | 0.92
O=C1C[C@@H](C(=O)Nc2ccncc2)Oc2ccc(F)cc21 | 31 | -3.46
Cc1noc(C)c1S(=O)(=O)NCc1cn(-c2cccnc2)nn1 | 0 | 0
Nc1ncc(Cl)cc1S(=O)(=O)N1CCCNCC1 | -9 | 1.71
CC1CN(c2nc(-c3ccccc3)nnc2-c2ccccc2)CC(C)O1 (stereo not drawn) | 32 | -0.87
N#CCN(C(=O)c1cnn(Cc2ccccc2)c1)C1CCCC1 | -14 | 1.27
CCc1ccc(-c2c(-c3ccccc3)ncn2Cc2nnc3n2CCC3)nc1 | 17 | -2.15
Cc1cc([C@@H](C)C(=O)N2CCN(CC(C)(C)O)CC2)c(C)o1 | -3 | 0.29
O=C(Nc1ccc(F)cc1NC(=O)c1cc2c(s1)CCC2)c1ccccn1 | -5 | 0.6
COc1ccc(Cl)cc1NC(=O)Cn1cc2c(n1)CCCCC2 | -8 | 1.46
CCOc1ccc(CNC(=O)C2CCN(c3nccc4c(C)nn(CC)c34)CC2)cc1OCC | 7 | -1.22
COC(=O)C1CCN(Cc2ccc3c(c2)CN(C(=O)c2ccc(CC(C)C)cc2)CCO3)CC1 | 2 | -0.47
C[C@@H](c1ccc(Cl)cc1Cl)N(C)C(=O)CC1CCOCC1 | -7 | 1.05
O=C(CCC1CCCOC1)NC(c1ccc(F)cc1)c1ccccn1 (stereo not drawn) | -13 | 1.99
CC(C)(C(=O)Nc1cc(C2CCCC2)[nH]n1)N1CCOCC1 | -1 | 0.14
COc1ccc(CS(=O)(=O)Cc2nc(C)cs2)cc1Cl | -6 | 0.55
NC(=O)c1ccc(-n2cnnc2)cc1N1CCCC1 | -5 | 0.51
COc1ccc(F)cc1S(=O)(=O)N1CCn2c(nn(C)c2=O)C1 | -13 | 2.3
Cc1ccc(S(=O)(=O)N2CC[C@](c3nnnn3C3CCCC3)(N(C)C)C2)cc1F | -16 | 1.81
CCn1cc(Cl)c(NC(=O)[C@H]2CNCC23CCCCC3)n1 | -1 | 0.26
CO[C@@H](C)c1cccc(NC(=O)C(=O)NCc2nc(C)cs2)c1 | -5 | 0.6
Cn1cc(NC(=O)[C@@H]2COCC(=O)N2Cc2ccccc2)cn1 | 3 | -0.56
Cc1ccc(OC[C@@H]2CCCN3CCCC[C@H]23)c(C(=O)O)c1 | 1 | -0.14
CCn1cc(-c2nc(CC(=O)Nc3ccc(F)c(C)c3)cs2)c2cccnc21 | -18 | 3.14
COC(=O)c1nc(NC(=O)c2sc(C)nc2C)sc1-c1ccccc1OC | -2 | 0.3
Cc1cc(C)c(C)c(S(=O)(=O)N2CCn3c(nnc3[C@H]3CCN(C(C)C)C3)C2)c1C | 37 | -4.95

SMILES | % Inhibition [%] | Z score
COc1ncc(CN2C[C@H](CO)OC(C)(C)C2)cc1Cl | 5 | -0.72
CCc1nn(C)cc1C=Cc1nc(C(=O)O)c(C)s1 | -1 | 0.21
CCN1CCN(c2ncc(C(=O)Nc3ccccc3)c(N)n2)CC1 | -18 | 2.08
O=C(C1CCC1)N1CCC[C@H](C(F)(F)F)C1 | -4 | 0.5
COc1ccc(F)c(CN2CCCC3(CCOCC3)C2)c1 | 15 | -1.91
O=C(Nc1cnccc1CO)c1csc(C2CCCCC2)c1 | 0 | 0.04
Cc1ccc(OCC(=O)N[C@H](c2ccccc2)C2CC2)c(C)c1 | -12 | 1.05
CN1CCO[C@H](C(=O)Nc2cccc(CCCO)c2)C1 | -10 | 1.29
CN(Cc1ccccc1)C(=O)CC[C@@H]1C(=O)Nc2ccccc21 | -16 | 1.95
Cc1nc([C@@H]2CCCCCN2C(=O)C2=CCCCCC2)no1 | -10 | 1.49
Cc1cccc(-c2nn(Cn3nc(C)c(Cl)c3C)c(-c3cccc(C)c3)c2Cl)c1 | 26 | -2.9
CC1(C)CN(C(=O)c2ncoc2C2CC2)CC[C@]1(C)O | -9 | 0.75
Cc1cc(C)[n+](C(c2ccccc2)c2ccccc2)o1 | -1 | 0.11
N#CCN1CCN(C(=O)N2CCN(Cc3ccccc3)CC2)CC1 | -1 | 0.18
CN(C)C(=O)CC1CCN(C(=O)c2nccnc2O)CC1 | -4 | 0.56
COc1ccc(-c2nc3cc(C)ccc3cc2CN(C)[C@H]2CCN(C)C2)cc1 | -5 | 0.85
O=C(Cc1ccccc1O)N[C@H]1COc2cccc(Cl)c21 | -10 | 1.9
Cc1ccc(CCN(C[C@H]2CCCO2)S(C)(=O)=O)cc1 | -6 | 0.67
O=C(CC1CCCCC1)Nc1ccc(-c2nc3ccccc3s2)cc1Cl | 10 | -0.88
COc1cc(-c2cc(CN(C[C@H]3CCCO3)C(=O)C(C)(C)C)no2)cc(OC)c1OC | -2 | 0.32
CNC[C@@H]1C[C@H](F)CN1C(=O)CC(C)(C)c1ccc(F)cc1 | -14 | 1.73
CCCn1nccc1C(=O)N1CCN(CC=C(C)C)[C@@H]2CS(=O)(=O)C[C@@H]21 | -17 | 1.8
CNC(=O)COc1ccc(-c2cccc(C(=O)N3CCC[C@@H]3C)c2)cc1 | 0 | -0.02
CC1=C[C@@H](CN2CCC(O)CC2)[C@H](C(C)C)C[C@H]1Cc1nnc(-c2ccncc2)o1 | -2 | 0.33
Cn1c2c(c3ccccc31)CN(C(=O)NC(C)(C)C)CC2 | -7 | 1.27
Cn1cc(Cl)c(C(=O)NC(Cc2ccccc2)[C@H]2C[C@H](O)C2)n1 (stereo partly drawn) | -16 | 1.41
Brc1cnc(NCn2nnc3ccccc32)c(Br)c1 | -8 | 1.64
